# Laboratory results as given in PubChem BioAssay AID2546 (National Center for Advancing Translational Sciences (NCATS), 2010).
# Hit rate of the full screen: of about 310,000 compounds, about 11,000 (3.5%) were called active. Inconclusive results, whose numbers are uncertain, are shown with a selection of clear calls. Calls come from the whole dose curve; as a rule, active = well fitted inhibition curve with a large enough effect; inconclusive = small, poorly fitted or top-dose-only effect, or effect the other way; inactive = flat fitted curve, though single readings scatter. No potency is given beside an inconclusive call; the fits are too rough.
# Experiment: VP16 counterscreen qHTS for inhibitors of ROR gamma transcriptional activity;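 note: Gal4-VP16 expression switched on by copper sulfate through the metallothionein promoter; nearly all actives have a fitted effect of over 50% in size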
# Conditions: Drosophila S2 Gal4-VP16 UAS-luciferase, luminescence, 20 h; activity, negative = inhibition: at 53.6 µM (top of the series)
# % is set by controls: 0 for no effect and ±100 for the full control effect; potency is the fitted concentration of half-maximal effect; tags give direction and shape of the fitted curve.
Compound,Potency,"activity, negative = inhibition"
CC(=O)Nc1ccc(/C=N/NC(=O)c2cccs2)cc1,"inconclusive [inhibitor, single point]",–
COc1ccc(CNc2nc(-c3ccccc3CN(C)C)nc3ccccc23)c(OC)c1,"inconclusive [inhibitor, single point]",–
COC(=O)c1ccc(C(=O)Nc2nc3cc(N)c(C)cc3s2)cc1,"inconclusive [inhibitor, single point]",–
CCCn1c(=N)n(CC(=O)C(C)(C)C)c2ccccc21,–,inactive: 1.09%
NCCCCCc1nnc(SCc2cccc(Cl)c2)o1,active: 2.82 µM,–
COCCNC(=O)C(=O)N/N=C(\C)CC(=O)Nc1ccc(Cl)cc1Cl,"inconclusive [inhibitor, single point]",–
CC(=O)c1ccc(-n2c(-c3cc(-c4ccsc4)n[nH]3)n[nH]c2=S)cc1,"inconclusive [inhibitor, single point]",–
Cc1cc(/C=C2\SC(=S)N(C)C2=O)c(C)n1-c1ccc(O)cc1,active: 0.631 µM,–
O=C(Nc1nc(COc2ccccc2)cs1)C1CCC1,"inconclusive [inhibitor, single point]",–
Cc1cccc(Cc2cnc(NC(=O)c3ccc(C)o3)s2)c1,"inconclusive [inhibitor, single point]",–
FC(F)(F)c1cccc(-c2nn[nH]n2)c1,–,inactive: -3.28%
O=C(N/N=C/c1cc([N+](=O)[O-])ccc1Cl)c1cnccn1,–,inactive: -4.82%
O=C(C1=C(O)C(=O)N(CCN2CCOCC2)C1c1ccc(Cl)cc1)c1cc2ccccc2o1 (stereo unspecified),–,inactive: -3.08%
Cc1cccc(N2CCN(C(c3ccc(N(C)C)cc3)c3nnnn3C(C)(C)C)CC2)c1C (stereo unspecified),"inconclusive [inhibitor, single point]",–
CCc1cccc(C)c1NC(=S)NCCc1c(C)[nH]c2ccc(C)cc12,active: 5.62 µM,–
Cc1cccc(NC(=O)NCc2ccc3c(c2)cc(C)n3C)c1,"inconclusive [inhibitor, partial curve]",–
O=C(NC1CCN(C(=O)Nc2ccccc2Cl)CC1)c1cccc(F)c1,–,inactive: 7.42%
CCOP(=O)(OCC)C(C#N)=C1SCN(c2ccc(Cl)cc2)CS1,"inconclusive [inhibitor, single point]",–
CCCC(=O)Nc1nnc(-c2ccccc2)o1,"inconclusive [inhibitor, single point]",–
COc1ccc(NC(=O)COC(=O)c2ccc(OCc3ccccc3Cl)c(OC)c2)c(OC)c1,"inconclusive [inhibitor, single point]",–
COCCCn1c(-c2ccc(OC)cc2)nc2nc3ccccc3nc21,–,inactive: 5.99%
